The whole screen tested about 270,000 compounds, of which about 620 (0.23%) were called active. This list was built around the results that the source calls inconclusive (neither active nor inactive); the mix of calls is not that of the screen. Calls follow the shape of the dose curve; as a rule, active = well fitted inhibition curve with a large enough effect in the polarisation, with a control signal flat (not every such curve was filed as active); inconclusive = small, poorly fitted or top-dose-only effect, or effect the other way, or a change in a side signal; inactive = no such curve, though single readings can be large or run the other way; the % refers to the polarisation. Potencies beside an inconclusive call are fits to weak or partial responses and may not hold up. “Side channel” marks fits to a control or component signal instead of the main read-out.
What follows are molecules tested against Menin (Homo sapiens) (UniProt O00255) (assay: qHTS Assay for Inhibitors Targeting the Menin-MLL Interaction in MLL Related Leukemias: Competition With Texas Red Labeled MLL-derived Mutant Peptide). Conditions: fluorescence polarization; series mostly up to 61.6 µM.
Sequence of UniProt O00255 (O00255 whole entry, looked up): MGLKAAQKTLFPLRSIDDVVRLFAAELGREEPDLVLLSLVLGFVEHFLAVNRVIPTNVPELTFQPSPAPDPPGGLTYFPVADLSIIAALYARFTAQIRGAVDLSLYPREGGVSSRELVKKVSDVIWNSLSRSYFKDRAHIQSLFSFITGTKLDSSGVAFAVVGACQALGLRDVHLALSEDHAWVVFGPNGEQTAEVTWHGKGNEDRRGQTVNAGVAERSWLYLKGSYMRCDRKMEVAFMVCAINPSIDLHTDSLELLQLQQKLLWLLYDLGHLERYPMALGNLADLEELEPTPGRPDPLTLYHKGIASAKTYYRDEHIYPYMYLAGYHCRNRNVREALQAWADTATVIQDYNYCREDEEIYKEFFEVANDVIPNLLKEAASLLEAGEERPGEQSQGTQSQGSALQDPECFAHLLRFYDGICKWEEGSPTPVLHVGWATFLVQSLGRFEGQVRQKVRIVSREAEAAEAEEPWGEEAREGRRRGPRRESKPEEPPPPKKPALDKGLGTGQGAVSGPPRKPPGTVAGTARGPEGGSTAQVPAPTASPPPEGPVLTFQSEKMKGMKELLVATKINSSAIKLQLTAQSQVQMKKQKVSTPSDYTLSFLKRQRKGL
Potency is read from the fitted curve at half-maximal effect; tags tell the direction and shape of the fitted curve or compound fluorescence and quenching.

Potency, inconclusive:
O=C(CCN1C(=O)/C(=C/c2ccc(Cl)cc2)SC1=S)Nc1cccc(C(=O)O)c1 22.4 µM [quencher, side channel, partial curve]
O=C1c2ccc(Oc3ccc4c(c3)C(=O)N(CCCO)C4=O)cc2C(=O)N1CCCO 14.1 µM [inhibitor, partial curve]
Cc1cc(SCC(=O)OC/C(O)=C(\C#N)c2nc3ccccc3[nH]2)c(C)cc1Br 12.6 µM [quencher, side channel, partial curve]
CCOC(=O)Cn1c(=NC(=O)c2cc(-c3cccs3)nc3ccccc23)sc2cc(S(N)(=O)=O)ccc21 1.41 µM [quencher, side channel, partial curve]
O=C(NC(=S)Nc1ccc(S(=O)(=O)N2CCCC2)cc1)c1cccs1 35.5 µM [quencher, side channel, partial curve]
CC(C)Oc1ccc(Br)cc1C(=O)N/N=C/c1c[nH]c2ccccc12 11.2 µM [quencher, side channel, partial curve]
CN(C)c1ccc(-c2nnc(-c3cccs3)o2)cc1 39.8 µM [inhibitor, partial curve]
C/C(=N/NC(=O)c1cc(O)c(O)c(O)c1)c1ccc([N+](=O)[O-])cc1 39.8 µM [quencher, side channel, single point]
O=C(Nc1ccccc1-c1nnn(CC(=O)N2CCN(c3ccccc3)CC2)n1)c1cccs1 3.55 µM [quencher, side channel, full curve]
COc1cccc2c1C(=O)c1ccc3ccccc3c1C2=O 11.2 µM [quencher, side channel, partial curve]
COc1cc(NC(=O)CSc2nnc(Cn3nnc4ccccc43)n2C)cc(OC)c1 25.1 µM [inhibitor, single point]
COc1ccc2[nH]c(-c3ccccc3)cc2c1 1.12 µM [quencher, side channel, full curve]
COc1ccc(-n2sc3c(c2=S)-c2cc(OC)ccc2NC3(C)C)cc1 8.91 µM [quencher, side channel, partial curve]
COc1ccc(CNC(=O)c2ccc3c(=O)n(-c4ccccc4)c(=O)[nH]c3c2)cc1 35.5 µM [fluorescent, side channel, partial curve]
COc1ccc(N2CCN(CCCNC(=O)C3CCC(CNc4nc(=S)[nH]c5ccccc45)CC3)CC2)cc1 (stereo not drawn) 22.4 µM [fluorescent, side channel, single point]
C=C(C)CN=C1SC(C(=O)Nc2sc3c(c2C(=O)OC)CCC3)C(N)=C1C(N)=O (stereo not drawn) 20 µM [quencher, side channel, partial curve]
COc1ccc(NC(=O)c2ccccc2NC(=O)NC2CCCCC2)cc1 31.6 µM [fluorescent, side channel, single point]
CCCCN(CCCNC(=O)c1c(C)cc(=O)oc1C)c1ccccc1 22.4 µM [inhibitor, single point]
NC(=O)C1CCN(c2nc(C3CC3)nc3c2nnn3Cc2ccccc2Cl)CC1 35.5 µM [fluorescent, side channel, single point]
COc1ccccc1Nc1ncccc1[N+](=O)[O-] 12.6 µM [quencher, side channel, partial curve]
c1ccc2c(-c3csc(-c4ccncc4)n3)c[nH]c2c1 22.4 µM [quencher, side channel, partial curve]
COc1ccc2[nH]c(N=Nc3ccccc3C)c(O)c2c1 25.1 µM [quencher, side channel, partial curve]
COc1cc([N+](=O)[O-])ccc1-c1ccc(C(=O)Nc2ccc(NC(C)=O)cc2)o1 39.8 µM [quencher, side channel, single point]
CCN(CCC(=O)O)c1ccccc1 22.4 µM [inhibitor, partial curve, poor fit]
O=C(/C=C/Nc1ccccc1Oc1ccccc1)c1ccco1 28.2 µM [quencher, side channel, single point]
Cc1[nH]c2c(C)cccc2c1CC(=O)O 28.2 µM [quencher, single point]
O=C1c2ccccc2C(=O)N1CCCCN(C(=O)c1ccco1)c1ccc(Cl)cc1 17.8 µM [fluorescent, side channel, partial curve]
CSc1ccccc1C(=O)Nc1cc(C)ccc1C 12.6 µM [inhibitor, partial curve, poor fit]
Cc1nc(NC(=O)c2ccccc2)sc1-c1csc(N)n1 28.2 µM [quencher, side channel, partial curve]
COc1ccc(-c2coc3cc(OC)cc(O)c3c2=O)cc1 39.8 µM [inhibitor, single point]
CC(=O)Nc1ccc(S(=O)(=O)N2CCN(c3ccc([N+](=O)[O-])cc3)CC2)cc1 39.8 µM [inhibitor, single point]

Potency, inactive:
O=C(Nc1nc2ccccc2s1)c1ccccc1[N+](=O)[O-]
COC(=O)[C@H](COC(C)(C)C)NC(=O)O[C@H]1C(=O)c2cc(OC)ccc2O[C@@H]1c1ccc(OC)c(Br)c1
CCOC(=O)C1CCCc2c1[nH]c1c(C(N)=O)cccc21 (stereo not drawn)
Cc1[nH]c(=O)cc2ccccc12
COC(=O)c1nnc(N[C@@H](Cc2c[nH]c3ccccc23)C(=O)OC)nc1C(=O)OC
COCCNC(=O)c1ccc(CN2CCC(Cc3ccccc3)CC2)cc1
O=C(N/N=C/C(Br)=C\c1ccccc1)c1n[nH]c2c1CCC2

Reference: PubChem BioAssay AID1768 (National Center for Advancing Translational Sciences (NCATS), 2009)
